Test results taken from PubChem BioAssay AID624202 (National Center for Advancing Translational Sciences (NCATS), 2012).
The whole screen tested about 380,000 compounds, of which about 4,000 (1.1%) were called active. This list was built around the results that the source calls inconclusive (neither active nor inactive); the mix of calls is not that of the screen. The call rests on the fitted dose curve; in most records, active means well fitted activation curve with a large enough effect; inconclusive means small, poorly fitted or top-dose-only effect; inactive means no such curve, though single readings can be large or run the other way. Potencies of inconclusive entries are doubtful fits and often do not repeat.

assay: qHTS Assay to Identify Small Molecule Activators of BRCA1 Expression; settings: MCF7-BRCA1-FFLuc reporter, luminescence, 48 h; activation: at 46.1 µM (top of the series), scaled: vehicle 0%, 10 µM genistein 100% unless noted; further: nearly all actives have a fitted effect of over 80% in size
Summary of the method: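 Reporter cells (MCF7, BRCA1 promoter-firefly luciferase) received library compounds across a concentration series for 48 h. End-point luminescence was measured and concentration-effect curves derived after normalization.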
Potency means the concentration at half of the fitted maximal effect; tags describe the fitted curve by direction and shape.

| SMILES | Potency | activation |
| --- | --- | --- |
| Cc1ccc2cc(NC(=O)Cc3ccccc3)ccc2n1 | active: 4.47 µM |  |
| O=C1C2C(c3ccccc3)CC=CC2[C@H](c2cccc([N+](=O)[O-])c2)N1Cc1ccccc1 (stereo partly drawn) | inactive |  |
| CCc1nnc(NC(=O)c2cc(C)oc2C)s1 | active: 5.62 µM |  |
| Cc1ccsc1C(=O)OCc1csc(-c2ccccc2)n1 | inconclusive: 31.6 µM [activator, single point] |  |
| Cc1ccc(-c2cn3c(=O)cc(C)[nH]c3n2)cc1 | inconclusive: 2 µM [activator, partial curve, poor fit] |  |
| CN(C(=O)c1ccco1)c1nnc(C23CC4CC(CC(C4)C2)C3)s1 | inconclusive: 12.6 µM [activator, partial curve, poor fit] |  |
| N#C/C(=C\c1ccc(N2CCOCC2)o1)c1nc2ccccc2[nH]1 | inconclusive: 0.501 µM [activator, full curve, poor fit] |  |
| O=C(NCCc1ccccc1)Nc1ccc2c(c1)OCO2 | inconclusive: 3.55 µM [activator, partial curve, poor fit] |  |
| CSCC[C@H](NC(=O)[C@@H]1Cc2ccccc2CN1)C(=O)Nc1ccc2c(c1)OCCO2 | active: 11.2 µM |  |
| COc1ccc(S(=O)(=O)NCc2cccn2Cc2cc(C)ccc2C)cc1OC | inactive |  |
| CC(=O)C1=C(O)C(=O)N(c2ccc(Br)cn2)C1c1ccc(F)cc1 (stereo not drawn) | inconclusive: 1 µM [activator, full curve, poor fit] |  |
| COc1ccc(CN=Cc2[nH]c3ccc(Br)c(Cl)c3c2O)cc1 | inactive |  |
| CCCNC(=O)c1cc(Cl)c(NC(=O)C2=CSCCO2)cc1OC | active: 7.94 µM |  |
| Fc1ccc2nc(N3CCOCC3)sc2c1 | active: 11.2 µM |  |
| c1ccc(Sc2ncnc3c2oc2ccccc23)cc1 | inconclusive: 31.6 µM [activator, single point] |  |
| CNC(=S)N1N=C(c2ccc(OC)cc2)CC1c1ccc(N(C)C)cc1 (stereo not drawn) | inactive |  |
| C=CCc1ccccc1OCCSc1nc(-c2ccccc2F)nc2cc(=O)[nH]n12 | inactive |  |
| O=C(/C=C/c1cc2ccccc2o1)c1ccccc1O | inconclusive: 31.6 µM [activator, single point] |  |
| CCOC(=O)C1=C(C)NC2=C(C(=O)C(C(=O)OCC)C(c3cccc(OC)c3)C2)C1c1ccccn1 (stereo not drawn) | inactive |  |
| COc1ccc(/C=c2\s/c(=C\C(=O)C(C)(C)C)[nH]c2=O)cc1O | inactive |  |
| O=C(/C=C/c1ccc(S(=O)(=O)N2CCOCC2)cc1)NC(=S)Nc1ccc(N2CCOCC2)cc1 | inactive |  |
| O=C(c1cccc(F)c1)N1CCN=C1SCc1cccnc1 |  | inconclusive: 75.9% [activator] |
| C=CCNC(=O)c1ccc2c3n(nc2c1)-c1ccc(Cl)cc1CO3 | inconclusive: 1.58 µM [activator, full curve, poor fit] |  |
| Clc1cccc(Nc2nc(-c3cccnc3)cs2)c1 | inconclusive: 31.6 µM [activator, single point] |  |
| O=[N+]([O-])c1ccc(NCc2ccc(Cl)cc2)nc1 | inconclusive: 12.6 µM [activator, partial curve, poor fit] |  |
| CCOc1ccc(NS(=O)(=O)c2c(C)nc3sc(CC)nn3c2=O)cc1 | inactive |  |

| SMILES | Potency | activation |
| --- | --- | --- |
| CCCc1cnc(N2CCN(C(=S)NC)CC2)nc1 | inconclusive: 15.8 µM [activator, partial curve, poor fit] |  |
| O=[N+]([O-])c1ccccc1CNC1CCCc2ccccc21 (stereo not drawn) | inconclusive: 15.8 µM [activator, partial curve, poor fit] |  |
| COc1ccccc1C(=O)NNC(=O)c1cccc(F)c1 | inactive |  |
| COc1cc(OC)cc(C(=O)NC(=S)N2CCCCCC2)c1 | inactive |  |
| Clc1ccc(-c2nnc(SCc3ccon3)o2)c(Cl)c1 | inconclusive: 0.631 µM [activator, full curve, poor fit] |  |
| C=C(C)CNC(=S)N/N=C/c1ccc(N2CCOCC2)cc1 | inactive |  |
| CNC(=S)N1CCN(c2nc3ccccc3s2)CC1 | active: 7.08 µM |  |
| Cc1ccnc(NC(=O)C2CCN(S(=O)(=O)c3ccc(C)c(C)c3)CC2)c1 | inconclusive: 35.5 µM [activator, single point] |  |
| COc1ccc(-c2noc(=O)n2Cc2cc(C)ccc2C)cc1 | inactive |  |
| CC(C)Sc1ccc(C(=O)Nc2ccc(F)cc2F)cn1 | inactive |  |
| COc1ccc(Nc2nc(-c3ccc(OC)cc3)cs2)cc1 | inconclusive: 11.2 µM [activator, partial curve, poor fit] |  |
| c1ccc(-c2cn(CC3CCCCC3)nn2)cc1 | active: 5.62 µM |  |
| CC1=NN(C(N)=S)C(=O)C1N=Nc1cccc(Cl)c1 (stereo not drawn) | inconclusive: 20 µM [activator, single point] |  |
| Cc1ccc(C(=O)O/N=C(\N)c2ccc(Br)cc2)cc1 | inconclusive: 3.98 µM [activator, full curve, poor fit] |  |
| COc1cccc(NC(=S)Nc2ccc(O)cc2)c1 | inactive |  |
| CC(=O)c1cccc(OCc2cc(C(=O)N3C[C@H]4CC[C@H]3C4)no2)c1 | inconclusive: 7.94 µM [activator, partial curve, poor fit] |  |
| Cc1ccc([C@H]2C(C(=O)O)=CC[C@@H](c3ccc(Cl)c(Cl)c3)N2S(=O)(=O)c2ccc(C)cc2)cc1 | inactive |  |
| Cc1[nH]c2ccc(-c3n[nH]c(=S)n3Cc3ccccc3)cc2c1C | inactive |  |
| Cc1cc(C)n(-c2nnc3c4ccccc4n(C)c3n2)n1 | active: 1.41 µM |  |
| Cc1cc2sc(NC(=O)c3ccco3)nc2cc1Cl | inconclusive: 0.631 µM [activator, full curve, poor fit] |  |
| O=C(NCc1cccs1)c1cccc2c(-c3ccc(F)c(F)c3)coc12 | inconclusive: 1.58 µM [activator, partial curve, poor fit] |  |
| CC1(c2ccncc2)Nc2ccccc2-c2nc3ccccc3n21 (stereo not drawn) | inconclusive: 35.5 µM [activator, single point] |  |
| Cc1cc2ncn(C(=O)N3CCC(C)CC3)c2cc1C | inconclusive: 11.2 µM [activator, partial curve, poor fit] |  |
| O=C(NCCc1ccccc1)Nc1ccc(Cl)cc1 | active: 5.01 µM |  |
| CCOc1ccccc1N(CC(=O)NCC1CCCO1)C(=O)CCC(=O)Nc1ccccn1 (stereo not drawn) | inactive |  |
| O=C(NCCc1ccccc1)c1ccc(Cl)c([N+](=O)[O-])c1 | active: 3.98 µM |  |

| SMILES | Potency | activation |
| --- | --- | --- |
| CC1(Oc2cccc(C#N)c2)CCN(Cc2csc3ccccc23)C1 (stereo not drawn) | inactive |  |
| O=C(OCc1ccccc1)N1CCC2CC1c1ccc(N3CCNCC3)cc12 (stereo not drawn) | inconclusive: 2.51 µM [activator, partial curve, poor fit] |  |
| O=c1oc2ccccc2cc1-c1nc(-c2ccccc2)no1 | active: 12.6 µM |  |
| COc1ccc(NC(=O)c2sc3nc(C)nc(N4CCN(c5ccccn5)CC4)c3c2C)cc1Cl | inactive |  |
| CCc1ccc(/C=C\C(=O)N2CCCC2)cc1 | inconclusive: 11.2 µM [activator, single point] |  |
| Cc1ccc2nc(-c3ccc(NC(=O)CSCC(=O)O)cc3)sc2c1 | inconclusive: 2.51 µM [activator, full curve, poor fit] |  |
| Cc1ccc(N2C(=O)CSCC2=O)cc1 | inactive |  |
| Cc1cc(C)n(-c2ccc(C(=O)Nc3ccccn3)cc2)n1 | inconclusive: 1.26 µM [activator, partial curve, poor fit] |  |
| COC(=O)c1ccc(Nc2ncnc3sccc23)cc1 | inconclusive: 10 µM [activator, partial curve, poor fit] |  |
| CCC(=O)Oc1ccc(C(=O)Nc2ccc3c(c2)OCO3)cc1 | inconclusive: 0.891 µM [activator, full curve, poor fit] |  |
| COc1cc(CO)ccc1OCc1ccc(Cl)nc1 | inconclusive: 12.6 µM [activator, partial curve, poor fit] |  |
| CC1OC23CCCCC2C(C#N)(C(=N)O3)C1(C#N)C#N (stereo not drawn) | inactive |  |
| O=C(c1cc(-c2ccc(Cl)cc2Cl)on1)N1CCCC1 | inconclusive: 1.58 µM [activator, partial curve, poor fit] |  |
| COc1ccccc1CCNC(=O)C1CCC(=O)N(Cc2cccc(F)c2)C1 (stereo not drawn) | inconclusive: 35.5 µM [activator, single point] |  |
| Cc1ccc(OCc2nc(-c3ccccc3)no2)cc1 | active: 8.91 µM |  |
| N/C(=N\OC(=O)c1ccco1)c1ccccc1 | active: 5.62 µM |  |
| CCCCOc1ccc(CSc2ncn[nH]2)cc1 | active: 7.08 µM |  |
| N#Cc1ccc(C(=O)NC2CCCCCCC2)cc1 | inconclusive: 2.51 µM [activator, full curve, poor fit] |  |
| Cc1ccc(C)c(N2CCN(C(=O)CCc3c(C)nc4c(c3C)c(=O)n(C)c(=O)n4C)CC2)c1 | inactive |  |
| CCCn1c(O)c(C=Nc2ccccc2)sc1=S | inconclusive: 17.8 µM [activator, single point] |  |
| Cc1ccc(C(=O)NC2CCCCCCC2)cc1S(=O)(=O)N1CCOCC1 | active: 10 µM |  |
| Cc1ccc(NC(=O)C2CCN(S(=O)(=O)c3cccs3)CC2)cc1C | inactive |  |
| Cc1cc(C)n(-c2nnc(NC(C)(C)C)nn2)n1 | inconclusive: 14.1 µM [activator, partial curve, poor fit] |  |
| O=c1c2ccccc2oc2ccc(NCCCN3CCOCC3)cc12 | inconclusive: 2.24 µM [activator, full curve, poor fit] |  |
| O=C(O)c1cccc(N2C(=O)C=CC2=O)c1 | inactive |  |
| Cc1ccc(-c2nn3c(=O)c(C)nnc3s2)cc1 | inconclusive: 35.5 µM [activator, single point] |  |
